Publication PMC4336329 (PLoS ONE, 2015)
About 14,000 (4.5%) of roughly 310,000 compounds showed an effect of 50% or more. The effect is printed as a negative number. Some of the results follow.

target: human ether-à-go-go-related gene (hERG) potassium channel (human, UniProt Q12809); test: primary screen, population patch clamp on CHO cells stably expressing hERG
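Also: peak tail current of the secondary pulse compared with the same well before compound.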

human ether-à-go-go-related gene (hERG) potassium channel, sequence (Q12809 whole entry, looked up): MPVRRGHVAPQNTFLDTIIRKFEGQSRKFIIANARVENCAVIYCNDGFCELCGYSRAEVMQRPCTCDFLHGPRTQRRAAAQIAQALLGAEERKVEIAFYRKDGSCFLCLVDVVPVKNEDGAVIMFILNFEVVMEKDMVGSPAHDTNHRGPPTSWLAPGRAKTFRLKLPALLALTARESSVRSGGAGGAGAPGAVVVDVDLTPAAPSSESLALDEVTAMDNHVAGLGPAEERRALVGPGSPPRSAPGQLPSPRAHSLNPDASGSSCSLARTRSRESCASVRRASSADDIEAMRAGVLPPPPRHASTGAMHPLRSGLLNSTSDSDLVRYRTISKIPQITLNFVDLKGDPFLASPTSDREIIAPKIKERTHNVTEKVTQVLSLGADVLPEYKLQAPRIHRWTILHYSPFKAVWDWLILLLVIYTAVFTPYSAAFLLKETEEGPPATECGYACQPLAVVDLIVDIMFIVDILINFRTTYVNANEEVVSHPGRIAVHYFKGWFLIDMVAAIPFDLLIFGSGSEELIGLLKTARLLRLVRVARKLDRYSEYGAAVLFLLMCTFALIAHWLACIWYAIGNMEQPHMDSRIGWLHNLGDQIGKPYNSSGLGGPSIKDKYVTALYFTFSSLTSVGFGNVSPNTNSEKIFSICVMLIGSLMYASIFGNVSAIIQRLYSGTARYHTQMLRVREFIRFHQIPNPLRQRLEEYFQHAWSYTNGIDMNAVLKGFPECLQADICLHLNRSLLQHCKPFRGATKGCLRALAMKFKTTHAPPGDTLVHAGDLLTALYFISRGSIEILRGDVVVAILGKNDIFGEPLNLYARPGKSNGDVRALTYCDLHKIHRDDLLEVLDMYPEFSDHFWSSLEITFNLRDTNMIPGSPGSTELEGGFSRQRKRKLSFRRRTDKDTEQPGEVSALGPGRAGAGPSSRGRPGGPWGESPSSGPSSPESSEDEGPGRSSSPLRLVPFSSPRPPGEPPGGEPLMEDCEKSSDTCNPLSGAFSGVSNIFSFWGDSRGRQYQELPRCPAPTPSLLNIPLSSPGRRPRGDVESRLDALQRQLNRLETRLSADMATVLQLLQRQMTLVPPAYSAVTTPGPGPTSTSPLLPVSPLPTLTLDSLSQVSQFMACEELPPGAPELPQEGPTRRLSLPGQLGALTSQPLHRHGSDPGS

SMILES | hERG current change (%, negative = inhibition) at 10uM
CCOC(=O)c1sc(N)c(C#N)c1CSc1nc2ccc(C)cc2[nH]1 | -15.8%
COc1ccc(CCNC(=O)/C=C/c2ccco2)cc1OC | 0.593%
O=C(N/N=C/c1ccoc1)c1ccc(Cl)cc1 | -37.8%
CCC(C)n1c(SCC(=O)NCCc2ccc(S(N)(=O)=O)cc2)nc2ccsc2c1=O (centres unmarked) | -1.16%
Br.COC(=O)c1ccc(CN2CCSC2=N)cc1 | 6.85%
CC1CCN(C(=O)c2ccc(NS(=O)(=O)c3cccs3)cc2)CC1 | 17.2%
O=C(c1oc(=O)c2ccccc2c1-c1ccccc1)N1CCOCC1 | -24.6%
CCOC(=O)c1sc2nc(C)nc(SCC(=O)NC3CCS(=O)(=O)C3)c2c1C (centres unmarked) | 2.56%
O=C(NNC(=S)Nc1cccc(C(F)(F)F)c1)c1ccccc1Cl | 18.6%
CSc1nc2sccc2c(=O)[nH]1 | 32.8%
Cc1c(CC(=O)NCCC(=O)O)c(=O)oc2cc3occ(-c4ccccc4)c3cc12 | 7.11%
COc1ccccc1CCNCc1cc2c(cc1[N+](=O)[O-])OCO2 | -27.7%
O=C(O)/C(=C\c1ccc(F)cc1)c1ccc(-c2ccccc2)cc1 | -2.31%
O=C(Nc1ccc(S(=O)(=O)N2CCOCC2)cc1)c1ccc([N+](=O)[O-])o1 | -28.8%
Cc1ccc(NC(=O)COC(=O)C2CC3CCCC(C2)C3=O)c([N+](=O)[O-])c1 (centres unmarked) | -6.56%
CCc1nc(SCC(=O)N2CCN(C(=O)c3ccco3)CC2)c2c3c(sc2n1)CCCC3 | -46%
Cc1ccc(C)c(NC(=O)CN(C)C(=O)C2CCN(S(=O)(=O)c3ccc4c(c3)OCCO4)CC2)c1 | -10.6%
COc1ccc(C(C(=O)NC2CCCC2)N(Cc2cccnc2)C(=O)c2snc(C(N)=O)c2N)cc1OC (centres unmarked) | 14.5%
O=C(NCc1ccco1)C1CCCN1C(=O)NCc1ccccc1 (centres unmarked) | -1.87%
Cn1nnc2cc(C(=O)Nc3ccc4ccccc4c3)ccc21 | 13.3%
CC(CN1CCCCC1)OC(=O)CCc1ccccc1.Cl (centres unmarked) | -14.5%
Cc1c(C)c2cc(Cl)c(OCC(=O)N3CCN(c4ccc(F)cc4)CC3)cc2oc1=O | 9.44%
O=C1c2cccnc2C(Nc2ccccc2Br)N1Cc1ccco1 (centres unmarked) | -6.88%

SMILES | hERG current change (%, negative = inhibition) at 10uM
COc1ccc(-c2cc(C(F)F)n3ncc(C(=O)n4ccnc4C)c3n2)cc1 | 6.68%
COc1ncccc1C(=O)NC1CCCc2c1cnn2-c1ccc(C)c(C)c1 (centres unmarked) | -23.3%
O=C(C[n+]1ccn(CCCNP2(=O)C=C(c3ccccc3)OC(c3ccccc3)=C2)c1)c1cccs1.[Br-] | -44.7%
Cc1cccc(C(=O)N2CCc3cc(-c4csc(NC(=O)CN5CCCC5)n4)ccc32)c1 | -6.77%
CCc1ccc(NC(=O)COC(=O)c2nc3nc(C)cc(C)n3n2)cc1 | -27.2%
COc1ccc(NC(C)=O)cc1S(=O)(=O)N1CCN(C/C=C/c2ccccc2)CC1 | -69.3%
CCC(CC)c1nnc(NC(=O)CCN2C(=O)c3ccccc3C2=O)s1 | 9.47%
Cc1cc(C)n2c(SCC#N)nnc2n1 | 0.567%
CCNc1ccc(Br)cc(C(=O)/C=C/c2ccc3c(c2)OCO3)c1=O | 1.19%
Cc1cccc(-n2c(SCC(=O)O)nc3sc4c(c3c2=O)CCCC4)c1 | 16.6%
O=C(c1ccc(Cl)c(S(=O)(=O)N2CCOCC2)c1)N1CCCC1 | 3.83%
COc1ccccc1Nc1nc(N)nc(CSc2ncccn2)n1 | -24.2%
CN1CCN(C2=Cc3ccc(Cl)cc3Sc3ccc(F)cc32)CC1.CS(=O)(=O)O.O | -14.8%
COc1ccccc1C1c2[nH]c3ccccc3c2CCN1Cc1ccc(NC(C)=O)s1 (centres unmarked) | -7.67%
CCc1c(C)c2cc(Cl)c(O)c(CN3CCCC3)c2oc1=O | 7.02%
O=c1[nH]c2ccccc2n1Cc1ccc(F)cc1 | 3.96%
CC(C)=C1C2CCC1C(C(=O)Nc1cc(C)cc(C)c1)C2C(=O)O (centres unmarked) | 14%
CC(C)Oc1ccccc1NC(=O)CSc1nccn1C | 8.33%
O=C(COC(=O)c1ccc(S(=O)(=O)NCc2ccco2)cc1)NCc1ccc(F)cc1 | -10.2%
O=C(Nc1ccccc1)c1ccc2nsnc2c1 | 2.43%
O=C(C1CC1)N1CCN=C1SCc1ccc(F)cc1 | -9.05%
CCN(C(=O)COC(=O)c1c(-c2ccccc2)noc1C)c1c(N)n(Cc2ccccc2)c(=O)[nH]c1=O | 14.3%
O=C(Nc1nncs1)C1CCCC1 | 13.3%

SMILES | hERG current change (%, negative = inhibition) at 10uM
COc1ccc(/C=C/C(=O)C(C(N)=O)=C2SCCS2)cc1 | 2.51%
Cc1cc(C)cc(N=C2NC(=O)/C(=C/c3cccs3)S2)c1 | 14.7%
O=C(NCCN1CCOCC1)C(=O)NCC1CCCO1 (centres unmarked) | -2.29%
Cc1cc(NC(=O)CSc2nc(C(C)C)nc3sc(C)c(C)c23)no1 | 18.8%
COc1cccc(/C=C/c2ccncc2)c1OC.Cl | -4.42%
Cc1cc(-c2nc3ncccc3o2)ccc1NC(=S)NC(=O)C(C)C | 9.24%
COc1ccc(S(=O)(=O)NCCCc2ccccc2)cc1 | -13.6%
COc1ccc(Nc2nccc(OC)c2C#N)cc1 | -38.8%
Cc1ccc(C(=O)NCCNC(=O)c2ccccn2)cc1 | 12.9%
CCN(CC)c1nc2ccccc2nc1-n1nc(C)cc1C | -6.86%
COc1cccc(C2=CC(c3cc(OC)ccc3OC)n3nnnc3N2)c1 (centres unmarked) | 18.4%
Cn1c(C(=O)NC2CCCCCC2)cc2c(=O)n(C)c3ccccc3c21 | -11.8%
CCc1ccc2c(c1)c1nnc(NN)nc1n2CC | -24.6%
CCOC(=O)c1ccc2c(c1)n(CC)c(/C=C/Nc1ccccc1)[n+]2CC.[I-] | -80%
N#Cc1c(SCc2ccc(Cl)cc2)sc(C(=O)c2ccccc2)c1N | 12.5%
Cc1ccccc1NS(=O)(=O)c1ccc2[nH]c(=O)[nH]c2c1 | 22.2%
Cc1cc(C2=NNC(=NC3CC3)SC2)c(C)n1-c1ccccc1F | -36%
Clc1ccc2c(c1)C(c1ccccc1Cl)=NCc1nncn1-2 | -4.37%
CCOC(=O)C1CCN(C(=O)CCn2c(=O)[nH]c3ccccc3c2=O)CC1 | -5.69%
CC1Cn2c(nnc2-c2cccc(Cl)c2)S1 (centres unmarked) | -6.8%
CCOC(=O)N1CCN(C(=O)CCC(=O)N2CCOc3ccc(C)cc32)CC1 | -4.85%
O=C1/C(=C/c2coc3ccc(O)cc3c2=O)SC(=S)N1c1ccccc1 | 8.42%
Cc1c(C(=O)NCCC2=CCCCC2)oc2ccc(S(=O)(=O)N3CCOCC3)cc12 | -37.2%

SMILES | hERG current change (%, negative = inhibition) at 10uM
Cc1cc(C)c(NC(=O)c2cc3c(nc4sccn43)s2)c(C)c1 | -5.61%
CCOC(=O)N1CCN(C(=O)C2CCN(S(=O)(=O)c3cc(Cl)ccc3OCC)CC2)CC1 | -35.5%
O=C(CSc1nnc2scc(-c3ccccc3)n12)Nc1nsc(-c2ccccc2)n1 | -40.1%
COC(=O)c1cc(=O)n(Cc2ccc3c(c2)OCO3)c(=Nc2ccc(F)cc2)s1 | 19.9%
COc1ccc(CCNC2CC(=O)N(N(C)C)C2=O)cc1OC (centres unmarked) | 11.3%
OC(CN1CCOCC1)Cn1c2ccccc2c2ccccc21 (centres unmarked) | 2.42%
COc1ccc(OC)c(/C=N\NC(=O)CSc2nnc(CCCc3ccc(OC)c(C)c3)o2)c1 | 20.2%
Cc1ccc(NN2C(=O)C=C(c3ccc(Cl)cc3)C2=O)cc1 | 13.9%
COc1ccc(S(=O)(=O)N2CCOCC2)cc1NC(=O)CSc1ccccc1 | -53.9%
O=C(Nc1cccc(-c2cscn2)c1)C1CCN(Cc2ccc(CO)o2)CC1 | -3.02%
Cc1ccc(CNC(=O)CCC2CCCN(Cc3cccc4ncccc34)C2)o1 (centres unmarked) | -22.4%
Cc1ccc2c(c1)c(C)c(C)n2CC(O)CN1CCCCC1C (centres unmarked) | -33.7%
COc1ccc(CC(=O)N2CC(C)CC(C)C2)cc1 (centres unmarked) | -6.06%
COc1ccc(NC(=O)CSc2ccc3ccccc3c2)cc1S(=O)(=O)N1CCCCC1 | 6.16%
Cc1cc(C)nc(-n2ncc3c2CCCC3=O)n1 | 15.5%
Cc1nc2c(=O)oc3ccccc3c2n1-c1ccccc1 | -25.2%
O=C(CCC1CCCN(c2ncccn2)C1)N1CCN(c2ccccn2)CC1 (centres unmarked) | -23%
CCn1cc(C(=O)NCCC2=CCCCC2)c(=O)c2cc(S(=O)(=O)N(C)C)ccc21 | -13.1%
CNc1cc(CS(=O)c2ccccc2)nc(-c2ccccc2)n1 (centres unmarked) | 10.3%
CCC(=O)N1CCc2cc(S(=O)(=O)CCC(=O)Nc3ccc(OC)c(OC)c3)ccc21 | 3.92%
